Test [1] can be described thus: qHTS assay for small molecules that induce genotoxicity in human embryonic kidney cells expressing luciferase-tagged ATAD5 - cell viability (AID 651634; calls by dose curve; note: nearly all actives have a fitted effect of over 25% in size). To be noted: HEK293T ATAD5-luc cells viability, CellTiter-Fluor, 15.5 h; series mostly up to 83.3 µM. The procedure, abridged:
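Live-cell protease activity (CellTiter-Fluor, fluorescence) indicates viability. HEK293T cells with luciferase-tagged ATAD5; 15.5 hr compound treatment at 37C.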
(In qHTS, concentration-response curves come from the screen itself.)

Test [2] in a line: A CellTox Green Cytotoxicity Assay to monitor cytotoxicity in HEK293 cells - 24 hour (AID 1224875). Note: nearly all actives have a fitted effect of over 45% in size. To be noted: CellTox Green fluorescence; series mostly up to 35.3 µM. The procedure, abridged:
(§1)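 Each value comes from one timepoint of a single continuous run in which HEK293 cells with CellTox Green were exposed to compound for up to 40 h at 37 C, dye fluorescence rising with cell death.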

Test [3] can be described thus: A CellTox Green Cytotoxicity Assay to monitor cytotoxicity in HEK293 cells - 16 hour (AID 1224888). Note: nearly all actives have a fitted effect of over 35% in size. The following applies: CellTox Green fluorescence; series mostly up to 76.8 µM. The procedure, abridged: as §1
Test [4] is described as follows: qHTS assay to identify small molecule antagonists of the glucocorticoid receptor (GR) signaling pathway - cell viability counter screen (AID 720693). Note: nearly all actives have a fitted effect of over 55% in size. The following applies: GR-bla HeLa viability, CellTiter-Glo luminescence, 18 h, with 5 nM dexamethasone present; series mostly up to 58.5 µM.
A short description of test [5]: qHTS assay to identify small molecule antagonists of the androgen receptor (AR) signaling pathway using the MDA cell line - cell viability counter screen (AID 743041; note: nearly all actives have a fitted effect of over 45% in size). To be noted: MDA-kb2 viability, CellTiter-Fluor, 16 h, cells co-treated with R1881 androgen agonist; series mostly up to 70.3 µM. The procedure, abridged:
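Viability counter screen run alongside the AR antagonist reporter: cells seeded 5 h before compound, R1881 added, 16 h incubation at 37C without CO2, fluorescent CellTiter-Fluor signal quantified.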

Test [6] can be described thus: qHTS assay to identify small molecule antagonists of the thyroid receptor (TR) signaling pathway (AID 743065). Note: nearly all actives have a fitted effect of over 55% in size. To be noted: GH3.TRE-Luc, T3-stimulated luciferase inhibition, 23.5 h; series mostly up to 70.3 µM. The procedure, abridged:
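GH3.TRE-Luc rat pituitary cells carrying two TR response elements driving luciferase were plated for 4 h, given compound plus 1 nM T3 (final), and incubated 23.5 h at 37 C. ONE-Glo luminescence measured reporter inhibition; CellTiter-Fluor fluorescence tracked cytotoxicity.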

Test [7] in a line: qHTS assay to identify small molecule agonists of the sonic hedgehog signaling (Shh) pathway (AID 1259368; calls by dose curve; note: nearly all actives have a fitted effect of over 15% in size). To be noted: NIH/3T3 Gli1-Luc reporter, luciferase, 24 h; series mostly up to 92.4 µM. The procedure, abridged:
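Luminescent signal was taken as a measure of Gli1-controlled luciferase expression in stably transfected NIH/3T3-derived cells that had been treated for 24 hr with compounds delivered in DMSO.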

A short description of test [8]: qHTS assay to identify small molecule antagonists of the TGF-beta/Smad signaling pathway - cell viability counter screen (AID 1346824). Note: nearly all actives have a fitted effect of over 50% in size. To be noted: SBE-bla HEK293T viability, CellTiter-Glo luminescence; series mostly up to 76.8 µM. Summed up: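 SBE-bla HEK 293T cells were plated overnight at 37 C, then given compounds in DMSO plus TGF-beta1 (added as 0.25 ng/mL solution) for 5 hr. After the bla read, CellTiter-Glo was added to the same wells and luminescence read after 30 min at room temperature.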

Structures are written as SMILES. Results filed as inconclusive are left out. Unless noted, calls come from the whole dose curve; as a rule, active = well fitted curve in the direction sought with a large enough effect in the repeat runs; inconclusive = weak or mixed curves; inactive = no such curve, though single readings can be large; an effect the other way counts as inactive or inconclusive. Some structures have more than one record in an assay (separate samples or runs), and their calls can disagree. Certain results were filed several times, with different values. This list holds those alone. The source may hold further records. Values given together repeat one measurement (runs, samples, wells, individuals or studies). A tag in brackets gives the origin of a value. Letters count within one entry.

For seven molecules, Potency results are on record in PubChem BioAssay (Tox21).
Potency is the fitted concentration of half-maximal effect.

With `C=C(c1ccc(C(=O)O)cc1)c1cc2c(cc1C)C(C)(C)CCC2(C)C`, the Potency entry was “inactive [sample A] and active: 61.1 µM [sample B]” in test [1]; “active: 30.9 µM [sample A] and inactive [sample B]” in test [2]; “active: 24.5 µM [sample A] and inactive [sample B]” in test [3].

In the case of `CC(C)(c1cc(Br)c(O)c(Br)c1)c1cc(Br)c(O)c(Br)c1`, the Potency result in test [1] is “inactive [sample A] and active: 57.9 µM [sample B]”.

As to `CCOC(=O)N1CCC(=C2c3ccc(Cl)cc3CCc3cccnc32)CC1`, in test [4], the Potency result is “inactive [sample A] and active: 49 µM [sample B]”.

In the case of `CO[C@H]1C=CO[C@@]2(C)Oc3c(C)c(O)c4c(O)c(cc(O)c4c3C2=O)NC(=O)/C(C)=C\C=C/[C@H](C)[C@H](O)[C@@H](C)[C@@H](O)[C@@H](C)[C@H](OC(C)=O)[C@@H]1C`, the Potency result in test [5] is “inactive [sample A] and active: 61.6 µM [sample B]”.

Consider `S=P(N1CC1)(N1CC1)N1CC1`, for which the Potency result in test [6] is “inactive [sample A] and active: 32.3 µM [sample B]”.

For `CCCCC(CC)COC(=O)c1ccc(O)cc1` (stereo not given), the Potency result in test [3] was “active: 38.8 µM [sample A] and inactive [sample B]”.

`CCCCCCCCCCCCOC(=O)c1cc(O)c(O)c(O)c1`: the Potency entry in test [7] was “inactive [sample A] and active: 21.7 µM [sample B]”; in test [8], “active: 54.7 µM [sample A] and inactive [sample B]”.
